Our source for the binding values is article PMC7261414, “A complex comprising C15ORF41 and Codanin-1: the products of two genes mutated in congenital dyserythropoietic anaemia type I (CDA-I)” (Biochemical Journal, 2020).

The target in experiment [1] is T1, GFP-tagged C15ORF41 Y94C, U2OS cells (human), Q9Y2V0.
T1 chain: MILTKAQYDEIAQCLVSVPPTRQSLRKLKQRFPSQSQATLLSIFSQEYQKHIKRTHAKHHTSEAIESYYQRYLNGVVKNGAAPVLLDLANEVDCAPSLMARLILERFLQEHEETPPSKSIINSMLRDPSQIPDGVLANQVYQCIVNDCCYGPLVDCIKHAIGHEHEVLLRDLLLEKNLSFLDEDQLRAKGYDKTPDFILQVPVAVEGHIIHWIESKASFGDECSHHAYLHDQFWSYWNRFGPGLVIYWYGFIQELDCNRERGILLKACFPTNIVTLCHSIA
The experiment in a line: co-IP; GFP-Trap affinity beads, ~0.5 mg of lysate of U2OS cells co-expressing GFP- and RFP-tagged proteins; western blotting with anti-GFP and anti-RFP. The settings on record: remark: other sources report otherwise. A general note: In western blotting, separated proteins are transferred to a membrane and probed.

Experiment [2] has as its target T2, GFP-tagged C15ORF41 L178Q, U2OS cells (human), Q9Y2V0.
T2 chain: T1 chain with C94Y, L178Q
The experiment is described as above. The settings on record: remark: other sources report otherwise.

Changes are numbered by the printed parent chain. No constants are given. Whether binding was seen depends on the method and setting. In cells and extracts the contact can be indirect. Some results given as binding are weak or reduced against the parent protein; the word gives no strength. Sequences can lack the tags named with a protein.

B1: RFP-tagged Codanin-1, U2OS cells, Q8IWY9 1-1227 (protein)
chain: MAAVLESLLREEVSVAAVVRWIARSTQGSEDNAGEAAALSSLRALRKEFVPFLLNFLREQSSRVLPQGPPTPAKTPGASAALPGRPGGPPRGSRGARSQLFPPTEAQSTAAEAPLARRGGRRRGPGPARERGGRGLEEGVSGESLPGAGGRRLRGSGSPSRPSLTLSDPPNLSNLEEFPPVGSVPPGPTGTKPSRRINPTPVSEERSLSKPKTCFTSPPISCVPSSQPSALDTSPWGLGLPPGCRSLQEEREMLRKERSKQLQQSPTPTCPTPELGSPLPSRTGSLTDEPADPARVSSRQRLELVALVYSSCIAENLVPNLFLELFFVFQLLTARRMVTAKDSDPELSPAVLDSLESPLFQSIHDCVFFAVQVLECHFQVLSNLDKGTLKLLAENERLLCFSPALQGRLRAAYEGSVAKVSLVMPPSTQAVSFQPETDNRANFSSDRAFHTFKKQRDVFYEVLREWEDHHEEPGWDFEKGLGSRIRAMMGQLSAACSHSHFVRLFQKQLLQMCQSPGGAGGTVLGEAPDVLSMLGADKLGRLWRLQERLMAPQSSGGPCPPPTFPGCQGFFRDFILSASSFQFNQHLMDSLSLKIQELNGLALPQHEPNDEDGESDVDWQGERKQFAVVLLSLRLLAKFLGFVAFLPYRGPEPPPTGELQDSILALRSQVPPVLDVRTLLQRGLQARRAVLTVPWLVEFLSFADHVVPLLEYYRDIFTLLLRLHRSLVLSQESEGKMCFLNKLLLLAVLGWLFQIPTVPEDLFFLEEGPSYAFEVDTVAPEHGLDNAPVVDQQLLYTCCPYIGELRKLLASWVSGSSGRSGGFMRKITPTTTTSLGAQPSQTSQGLQAQLAQAFFHNQPPSLRRTVEFVAERIGSNCVKHIKATLVADLVRQAESLLQEQLVTQGEEGGDPAQLLEILCSQLCPHGAQALALGREFCQRKSPGAVRALLPEETPAAVLSSAENIAVGLATEKACAWLSANITALIRREVKAAVSRTLRAQGPEPAARGERRGCSRACEHHAPLPSHLISEIKDVLSLAVGPRDPDEGVSPEHLEQLLGQLGQTLRCRQFLCPPAEQHLAKCSVELASLLVADQIPILGPPAQYRLERGQARRLLHMLLSLWKEDFQGPVPLQLLLSPRNVGLLADTRPREWDLLLFLLRELVEKGLMGRMEIEACLGSLHQAQWPGDFAEELATLSNLFLAEPHLPEPQLRACELVQPNRGTVLAQS
With B1, the binding entry in experiment [1] and in experiment [2] was “binds” each time.
